{
  "source": "PubChem BioAssay AID1768",
  "about": "(National Center for Advancing Translational Sciences (NCATS), 2009)",
  "note": "Where “and” joins values, the source holds several entries; their conditions need not be identical. Equal entries are not always repeated. About 620 (0.23%) of roughly 270,000 compounds were called active. The inconclusive results got no clear call from the source; some entries with a clear call stand among them for comparison. The call rests on the fitted dose curve; in most records, active means well fitted inhibition curve with a large enough effect in the polarisation, with a control signal flat (not every such curve was filed as active); inconclusive means small, poorly fitted or top-dose-only effect, or effect the other way, or a change in a side signal; inactive means no such curve, though single readings can be large or run the other way; the % refers to the polarisation. Potencies beside an inconclusive call are fits to weak or partial responses and may not hold up. “Side channel” marks fits to a control or component signal instead of the main read-out. Potency means the concentration at half of the fitted maximal effect; tags describe the fitted curve by direction and shape or compound fluorescence and quenching.",
  "data": [
    {"molecular_target": "Menin (Homo sapiens) (UniProt O00255)", "sequence (O00255 whole entry, looked up)": "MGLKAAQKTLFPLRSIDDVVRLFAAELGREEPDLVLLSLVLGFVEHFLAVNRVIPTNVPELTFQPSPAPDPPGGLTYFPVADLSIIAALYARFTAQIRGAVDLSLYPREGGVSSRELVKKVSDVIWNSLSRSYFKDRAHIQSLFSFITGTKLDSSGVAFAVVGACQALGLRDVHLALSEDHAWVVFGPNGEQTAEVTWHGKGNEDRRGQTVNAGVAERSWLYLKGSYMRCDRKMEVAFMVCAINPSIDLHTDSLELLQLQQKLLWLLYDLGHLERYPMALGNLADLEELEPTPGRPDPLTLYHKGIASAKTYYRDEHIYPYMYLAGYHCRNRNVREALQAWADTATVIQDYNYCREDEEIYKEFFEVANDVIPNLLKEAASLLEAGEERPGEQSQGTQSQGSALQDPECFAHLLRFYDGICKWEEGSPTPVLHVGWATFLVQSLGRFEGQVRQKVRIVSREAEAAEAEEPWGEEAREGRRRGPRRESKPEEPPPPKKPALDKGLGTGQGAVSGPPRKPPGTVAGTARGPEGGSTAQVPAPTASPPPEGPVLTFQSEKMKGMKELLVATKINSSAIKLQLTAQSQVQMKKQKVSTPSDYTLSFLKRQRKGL", "assay": "qHTS Assay for Inhibitors Targeting the Menin-MLL Interaction in MLL Related Leukemias: Competition With Texas Red Labeled MLL-derived Mutant Peptide; on FP activity change, negative = inhibition: % of control where 0% means no effect", "settings": "fluorescence polarization; FP activity change, negative = inhibition: at 61.6 µM (top of the series)", "values": [
      {"compound": "c1ccc2c(c1)[nH]c1c3ccccc3sc21", "Potency": "inconclusive: 10 µM [quencher, side channel, partial curve]"},
      {"compound": "Cc1cccc(-n2ncc3c(NCCc4ccc(S(N)(=O)=O)cc4)ncnc32)c1", "Potency": "inconclusive: 25.1 µM [quencher, side channel, partial curve]"},
      {"compound": "COc1ccc(NC(=O)c2oc3ccccc3c2NC(=O)c2ccco2)c(OC)c1", "FP activity change, negative = inhibition": "inactive: -1.9%"},
      {"compound": "Cc1ccc(NC(=O)CN(C)S(=O)(=O)c2cccc3nsnc23)cc1Cl", "Potency": "inconclusive: 39.8 µM [quencher, side channel, single point]"},
      {"compound": "CC(=O)Nc1ccc(NC(=O)CSc2nnnn2-c2ccccc2F)cc1", "Potency": "inconclusive: 39.8 µM [fluorescent, side channel, single point]"},
      {"compound": "Cc1nc2c(C(=O)NCCc3ccccc3Cl)c[nH]n2c(=O)c1Cl", "Potency": "inconclusive: 22.4 µM [quencher, side channel, partial curve]"},
      {"compound": "CCc1nnc(NC(=O)c2cccc(NC(=O)C(C)C)c2)s1", "Potency": "inconclusive: 7.08 µM [inhibitor, full curve, poor fit]"},
      {"compound": "COc1cc(C2NCCc3c2[nH]c2ccccc32)ccc1OC(C)C", "note": "(stereo unspecified)", "Potency": "inconclusive: 39.8 µM [fluorescent, side channel, single point]"},
      {"compound": "O=C(Nc1ccc(F)cc1)c1cc2cc(Cl)ccc2[nH]1", "Potency": "inconclusive: 35.5 µM [inhibitor, single point]"},
      {"compound": "Cc1nn(CCC(=O)NNC(=S)Nc2ccc([N+](=O)[O-])cc2)c(C)c1[N+](=O)[O-]", "Potency": "inconclusive: 20 µM [quencher, side channel, partial curve]"},
      {"compound": "CCOC(=O)[C@@H]1[C@H]2COc3ccc(Br)cc3[C@H]2N2C(=O)N(c3ccc(Cl)cc3)C(=O)[C@@]12C", "Potency": "inconclusive: 1.41 µM [quencher, side channel, full curve, poor fit]"},
      {"compound": "COc1cc2nc(Nc3cccc(F)c3)nc(N)c2cc1OC", "Potency": "inconclusive: 17.8 µM [quencher, side channel, partial curve]"},
      {"compound": "O=C(Nc1ccc(Cl)cc1)NC1CCCC1Cc1ccco1", "note": "(stereo unspecified)", "Potency": "inconclusive: 39.8 µM [quencher, side channel, single point]"},
      {"compound": "CC(=O)C1=C(O)C(=O)N(c2cccc(Br)c2)C1c1ccc(Br)cc1", "note": "(stereo unspecified)", "Potency": "inconclusive: 28.2 µM [quencher, side channel, single point]"},
      {"compound": "COc1ccc(/C=N/NC(=O)c2cccc(Br)c2)cc1Cn1cc(Cl)cn1", "FP activity change, negative = inhibition": "inactive: 19.3%"},
      {"compound": "COc1ccc(Cl)cc1Nc1nc(-c2cccnc2)cs1", "Potency": "inconclusive: 20 µM [quencher, side channel, partial curve]"},
      {"compound": "S=C(Nc1ccc2nsnc2c1)NC1CCCCC1", "Potency": "inconclusive: 20 µM [quencher, side channel, partial curve]"},
      {"compound": "O=C(Nc1ccc(S(=O)(=O)N2CCOCC2)cc1)c1ccc2c(c1)S(=O)(=O)c1ccccc1C2=O", "Potency": "inconclusive: 8.91 µM [quencher, side channel, full curve]"},
      {"compound": "CCCCSCCCNC(=O)CS(=O)Cc1nc(-c2cccc(C)c2)oc1C", "note": "(stereo unspecified)", "Potency": "inconclusive: 10 µM [fluorescent, side channel, partial curve]"},
      {"compound": "O=C(Nc1ccc(Cl)cc1)c1ccc2nsnc2c1", "Potency": "inconclusive: 11.2 µM [quencher, partial curve]"},
      {"compound": "O=C(CCN1C(=O)/C(=C/C=C/c2ccccc2)SC1=S)Nc1cccnc1", "Potency": "inconclusive: 11.2 µM [quencher, side channel, partial curve]"},
      {"compound": "COc1ccc2nc(NC(=O)CSc3nc4cccnc4n3C)sc2c1", "Potency": "inconclusive: 35.5 µM [fluorescent, side channel, single point]"},
      {"compound": "NC(=O)Oc1cccc(OC(N)=O)c1", "Potency": "inconclusive: 31.6 µM [quencher, side channel, single point]"},
      {"compound": "CC(C)CN1C(=O)c2ccc(NC(=O)c3cccs3)cc2C1=O", "Potency": "inconclusive: 31.6 µM [quencher, side channel, partial curve]"},
      {"compound": "CC(=O)C1=C(C)NC(SCc2cccc([N+](=O)[O-])c2)=C(C#N)C1c1ccco1", "note": "(stereo unspecified)", "Potency": "inconclusive: 15.8 µM [quencher, side channel, partial curve]"},
      {"compound": "CCS(=O)(=O)n1nc(-c2ccc(Cl)cc2)nc1SCc1ccccc1", "Potency": "inconclusive: 31.6 µM [quencher, side channel, single point]"},
      {"compound": "Cc1c(CCOC(=O)CC23CC4CC(CC(C4)C2)C3)sc[n+]1Cc1ccccc1", "Potency": "inconclusive: 20 µM [fluorescent, side channel, partial curve]"},
      {"compound": "COCCCNC(=O)c1cc(=O)n(Cc2ccc(Cl)cc2)c2ccccc12", "Potency": "inconclusive: 7.94 µM [inhibitor, partial curve]"},
      {"compound": "CCCCC1NC(C(=O)O)CS1", "note": "(stereo unspecified)", "FP activity change, negative = inhibition": "inactive: 11%"},
      {"compound": "CC(C)CN1CCC(=O)N(C(CSc2ccc(Br)cc2)Cc2ccccc2)CC1", "note": "(stereo unspecified)", "Potency": "inconclusive: 2 µM [fluorescent, side channel, full curve, poor fit]"},
      {"compound": "CN(c1ccc(OCC(=O)OCC(=O)Nc2ccc(Br)cc2)cc1)S(=O)(=O)c1cccs1", "Potency": "inconclusive: 11.2 µM [quencher, side channel, partial curve]"},
      {"compound": "CCSc1nnc(NC(=O)CSc2nc(CC)nc3c2c(=O)n(C)c(=O)n3C)s1", "Potency": "inconclusive: 28.2 µM [inhibitor, partial curve]"},
      {"compound": "CC(C)Nc1nnc(SCc2cc(=O)n3ccsc3n2)s1", "Potency": "inconclusive: 31.6 µM [inhibitor, single point]"},
      {"compound": "CC(=O)c1sc(-c2ccc(Cl)cc2)nc1C", "FP activity change, negative = inhibition": "inactive: 1.25%"},
      {"compound": "O=C(NN1C(=O)c2ccccc2NC1c1cccnc1)c1ccc([N+](=O)[O-])cc1", "note": "(stereo unspecified)", "Potency": "inconclusive: 14.1 µM [inhibitor, partial curve]"},
      {"compound": "N#Cc1c(SCC(=O)Nc2nccs2)sc2c(O)cc(=O)[nH]c12", "Potency": "inconclusive: 28.2 µM [quencher, side channel, single point]"},
      {"compound": "NC(=O)CSc1nnc(-c2cnccn2)n1-c1ccccc1", "Potency": "inconclusive: 39.8 µM [inhibitor, single point]"},
      {"compound": "COc1cc(NC(=O)COC(=O)Cc2ccc(-c3ccccc3)cc2)cc(OC)c1", "Potency": "inconclusive: 0.891 µM [quencher, side channel, full curve, poor fit]"},
      {"compound": "Oc1ccc(Cl)cc1-c1cc(-c2cccc(Br)c2)n[nH]1", "Potency": "inconclusive: 3.55 µM [quencher, side channel, full curve]"},
      {"compound": "Cc1ccc(OCC(=O)N/N=C\\c2c(C)[nH]n(-c3ccccc3)c2=O)c([N+](=O)[O-])c1", "Potency": "inconclusive: 31.6 µM [quencher, side channel, single point]"},
      {"compound": "COc1cccc(/C=c2\\s/c(=C/C(=O)c3ccc(C)cc3)[nH]c2=O)c1OC", "Potency": "inconclusive: 25.1 µM [quencher, side channel, single point]"},
      {"compound": "CC(=O)Nc1ccc(S(=O)(=O)NCC2CCC(C(=O)NCCC(C)C)CC2)cc1", "note": "(stereo unspecified)", "Potency": "inconclusive: 28.2 µM [fluorescent, side channel, single point]"},
      {"compound": "CCOc1ccccc1NC(=O)Cn1nnc(C(=O)Nc2ccccc2Cl)c1N", "Potency": "inconclusive: 10 µM [quencher, side channel, partial curve]"},
      {"compound": "COc1ccccc1CN(C)C(=O)c1ccc(COc2ccccc2)cc1", "Potency": "inconclusive: 1.26 µM [fluorescent, side channel, full curve, poor fit]"},
      {"compound": "COC(=O)c1cccc2c1-c1ccccc1/C2=N/O", "Potency": "inconclusive: 15.8 µM [quencher, side channel, single point]"},
      {"compound": "CCCOc1ccc(/C=N/Nc2cc(N3CCOCC3)ncn2)c(O)c1", "Potency": "inconclusive: 7.08 µM [quencher, side channel, partial curve]"},
      {"compound": "CC#CCN1c2ccccc2[C@]23C[C@@H](C(=O)OC)N(S(=O)(=O)c4ccc(C(F)(F)F)cc4)C2=NC(C(=O)OC)=C(C(=O)OC)[C@H]13", "FP activity change, negative = inhibition": "inactive: -8.88% [at 11.7 µM]"},
      {"compound": "COc1ccc(-c2noc(-c3ccco3)n2)cc1OC", "Potency": "inconclusive: 28.2 µM [inhibitor, partial curve]"},
      {"compound": "COc1ccc(NC(=O)COc2ccc(/C=N/NC(=O)c3cccnc3)cc2OC)cc1", "FP activity change, negative = inhibition": "inactive: 4.97%"},
      {"compound": "CC[n+]1c(/C=C/N(C)c2ccccc2)n(-c2ccccc2)c2ccc(-c3nc4ccccc4s3)cc21", "Potency": "inconclusive: 39.8 µM [inhibitor, partial curve] and inconclusive: 1.26 µM [fluorescent, side channel, full curve, poor fit]"},
      {"compound": "CCN(CC)C(=O)CSc1nc(O)c(Cc2ccccc2)c(=O)n1-c1ccccc1", "Potency": "inconclusive: 0.708 µM [inhibitor, full curve, poor fit]"},
      {"compound": "CC1(C)Oc2ccc3ccc(=O)oc3c2/C(=C/NNC(N)=S)C1=O", "FP activity change, negative = inhibition": "inactive: -10.8%"},
      {"compound": "COc1ccc(-c2nnc3n2N=C(c2ccc(OC)c(OC)c2)CS3)cc1", "FP activity change, negative = inhibition": "inactive: -11.7%"},
      {"compound": "Cc1ccc(S(=O)(=O)N/N=C\\c2cccnc2)cc1", "Potency": "inconclusive: 0.708 µM [inhibitor, full curve, poor fit]"},
      {"compound": "CC(C)(C)c1ccc(CN2N=Nc3ccccc3S2(=O)=O)cc1", "Potency": "inconclusive: 28.2 µM [quencher, side channel, partial curve]"},
      {"compound": "O=c1cc(CSc2nnnn2-c2ccccc2)[nH]c2[nH]n(-c3ccccc3)c(=O)c12", "Potency": "inconclusive: 31.6 µM [quencher, side channel, single point]"}
    ]}
  ]
}
